# The list shows a part of the results. Further columns of the screen follow, without active or inactive calls.
# Experiments:
# Test in all cases: Primary Screen for Target Class Profiling of Small Molecule Inhibitors of Methyltransferases
# [1] = molecular target: Glycine N-methyltransferase (Homo sapiens) (UniProt Q14749); conditions: purified enzyme, MTase-Glo SAH luminescence; measured here: GNMT inhibition; at 40 µM; stronger effect = lower value
# How it was run: (§1)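 Each enzyme was reacted with SAM and its substrate, with compounds tested once at 40 uM; SAH formed was read by MTase-Glo luminescence.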
# [2] = molecular target: Guanidinoacetate N-methyltransferase (Homo sapiens) (UniProt Q14353); conditions: purified enzyme, MTase-Glo SAH luminescence; measured here: GAMT inhibition; at 40 µM; stronger effect = lower value
# How it was run: as §1
# [3] = molecular target: Histamine N-methyltransferase (Homo sapiens) (UniProt P50135); conditions: purified enzyme, MTase-Glo SAH luminescence; measured here: HNMT inhibition; at 40 µM; stronger effect = lower value
# How it was run: as §1
# [4] = molecular target: Nicotinamide N-methyltransferase (Homo sapiens) (UniProt P40261); conditions: purified enzyme, MTase-Glo SAH luminescence; measured here: NNMT inhibition; at 40 µM; stronger effect = lower value
# How it was run: as §1
# [5] = molecular target: Phenylethanolamine N-methyltransferase (Homo sapiens) (UniProt P11086); conditions: purified enzyme, MTase-Glo SAH luminescence; measured here: PNMT inhibition; at 40 µM; stronger effect = lower value
# How it was run: as §1
# % is scaled to controls: 0 for no effect and ±100 for the full control effect.
Structure (SMILES),"activity change, negative = inhibition [1]","activity change, negative = inhibition [2]","activity change, negative = inhibition [3]","activity change, negative = inhibition [4]","activity change, negative = inhibition [5]"
CC(C)CCNC(=O)C1(C)Cn2c(cc3ccccc32)C(=O)N1CCc1ccccc1 (stereo not drawn),5.77%,1.24%,8.37%,2.38%,2.36%
Cc1ccc(NC(=O)N2CCn3cccc3C2C)cc1Cl (stereo not drawn),-6.08%,0%,1.34%,-10.6%,-4.36%
COc1ccc(-c2noc(C(=O)O)c2[C@@H](C)NC(=O)C2CCCCC2)cc1,-4.01%,-0.842%,-3.51%,-10.1%,-2.7%
CN(C)C(=O)N(C)Cc1ccc(F)cc1,-5.54%,-8.22%,-1.49%,-18.6%,-11.9%
CCCn1c(=O)c2cc(Cl)ccc2n2c(SCC(=O)Nc3cccc(C)c3)nnc12,-1.22%,2.58%,7.62%,-3.65%,-0.843%
Cc1ccc(CNC(=O)CNC(=O)C2(C)Cn3c(nc4ccccc43)C(=O)N2C)cc1 (stereo not drawn),3.22%,1.56%,5.19%,8.5%,1.29%
O=C(NC1CCOCC1)c1ccc(OC2CCN(Cc3ccccn3)CC2)cc1,-2.57%,-4.32%,0.068%,-3.56%,-3.56%
CCCCCCCCCCC/C=C\C(C)(C)/C=C\CCCC(=O)O,-9.82%,3.59%,-3.59%,-11.8%,1.62%
COc1ccccc1NC(=O)CSc1nnc2n(CC(C)C)c(=O)c3ccccc3n12,-16.6%,-4.56%,3.76%,-18.6%,-6.56%
Cc1occc(=O)c1O[C@@H]1O[C@H](CO[C@@H]2OC[C@](O)(CO)[C@H]2O)[C@@H](O)[C@H](O)[C@H]1O,2.82%,5.22%,5.24%,-6.59%,1.52%
C[C@H]1[C@@H](O)[C@H](O)C2[C@]3(C)C([C@@H](O)[C@H]4OC(=O)[C@@H]1[C@@]24C)[C@](C)(O)C=C[C@H]3O[C@@H]1O[C@H](CO)[C@@H](O)[C@H](O)[C@H]1O (stereo partly drawn),0.461%,-1.48%,9.4%,-12.4%,2.98%
CCc1cccc(N2C(=O)c3c(C(=O)OC)ncn3CC2(C)C(=O)NC2CCCC2)c1 (stereo not drawn),-1.39%,0.165%,-13.2%,-2%,-4.23%
CCOc1ccccc1OCCN[C@H](C)Cc1ccc(OC)c(S(N)(=O)=O)c1,,5.33%,,-16.4%,5.15%
CCc1cc2c(cc3n2CC(C)(C(=O)NC2CCCCC2)N(Cc2ccc(F)cc2)C3=O)s1 (stereo not drawn),2.18%,0%,7.28%,4.15%,-5.89%
CCCN1C(=O)c2c(C(=O)Nc3c(C)cccc3C)ncn2CC1(C)C(=O)NCc1ccc(C)cc1 (stereo not drawn),-0.921%,0%,12.5%,9.94%,9.22%
COc1cccc(CNC(=O)c2ccc3c(=O)nc4c(-c5ccccc5F)n[nH]n4c3c2)c1,-21.3%,-4.2%,3.88%,-1.91%,-0.608%
COc1ccc(CC(NC(C)=O)C(=O)O)cc1 (stereo not drawn),-1.5%,3.33%,1.55%,-8.34%,-0.573%

Structure (SMILES),"activity change, negative = inhibition [1]","activity change, negative = inhibition [2]","activity change, negative = inhibition [3]","activity change, negative = inhibition [4]","activity change, negative = inhibition [5]"
CC1OC(OC2C(CO)OC(OCC3OC(OC(=O)C45CCC(C)(C)CC4C4=CCC6C7(C)CCC(OC8OC(C(=O)O)C(O)C(OC9OC(CO)C(O)C(O)C9O)C8O)C(C)(C)C7CCC6(C)C4(C)CC5)C(O)C(O)C3O)C(O)C2O)C(O)C(O)C1O (stereo not drawn),3.96%,6.1%,9.68%,-3.22%,3.82%
C[C@@H]1CCCN1CCc1cc2cc(-c3ccc(C#N)cc3)ccc2o1,-9.98%,0.837%,-35.1%,-18.8%,-5.75%
COCCCNC(=O)CN1CCCc2nc(-c3ccncc3)ncc2C1=O,-5.7%,-1.85%,-1.04%,-2.8%,0.405%
COc1ccc(OC)c2c1cc1n2CC(C)(C(=O)NC2CCCCC2C)N(Cc2cccnc2)C1=O (stereo not drawn),-3.64%,2.95%,3.95%,-3.25%,-4.14%
COc1cc(Cl)c(CN2CCC[C@H]2C(=O)O)cc1OC,-20.9%,-8.35%,-4.96%,-13.4%,2.76%
CC(C)(C)CC(=O)N1CC[C@H](NC(=O)NC2CCCCC2)[C@H]1C(=O)N[C@H](Cc1c[nH]c2ccccc12)C(N)=O,-1.9%,-2.25%,0.459%,0.114%,1.84%
COCCNC(=O)C[C@@H]1O[C@H](CNS(=O)(=O)c2ccc(C)cc2)[C@@H](O)[C@H]1O,-0.37%,0.977%,1.16%,2.56%,4.96%
Cn1ccnc1-c1ccc(N2CCCC(CO)(CCOc3ccccc3)C2)nn1 (stereo not drawn),-4.34%,-4.74%,-1.72%,-16%,-3.38%
CC(C)[N+]1(C)C2CCC1CC(OC(=O)C(CO)c1ccccc1)C2 (stereo not drawn),0.025%,-15.6%,-5.71%,-20.6%,-17.6%
CC(C)[C@@H]1CN(C(=O)CCn2ccc(=O)[nH]c2=O)C[C@H]1NC(=O)N(C)C,2.31%,-1.83%,3.11%,3.3%,0.357%
CC1C(=O)Nc2ccc(S(=O)(=O)N3CCN(c4cccc(Cl)c4)CC3)cc2NC1=O (stereo not drawn),-5.8%,2.93%,-4.3%,-6.17%,-4.9%
C[C@H]1CC[C@@H]2N(C1)C[C@@H]1[C@H]([C@@H](O)[C@H](O)[C@]3(O)[C@H]1C[C@@]14OC5(O)[C@@H](C[C@@H](O)[C@@H]31)[C@]4(C)CC[C@@H]5O)[C@]2(C)O,0.867%,1.53%,7.71%,-9.46%,-2.27%
CC1CCC2C(=CCC(O)C2(C)C)C1(C)Cc1c(O)cc(CO)c(C=O)c1O (stereo not drawn),4.63%,11.5%,8.52%,-11.5%,4%
CC(CCC1(O)OC2CC3C4CC=C5CC(O[C@@H]6O[C@H](CO)[C@@H](O[C@@H]7O[C@H](CO)[C@@H](O)[C@H](O)[C@H]7O)[C@H](O)[C@H]6O[C@@H]6O[C@@H](C)[C@H](O)[C@@H](O)[C@H]6O)CCC5(C)C4CCC3(C)C2C1C)CO[C@@H]1O[C@H](CO)[C@@H](O)[C@H](O)[C@H]1O (stereo partly drawn),3.5%,1.46%,6.8%,-9.37%,6.35%
CNCCC(Oc1ccc(C(F)(F)F)cc1)c1ccccc1 (stereo not drawn),-7.65%,5%,-2.27%,-7.95%,6.25%
Cc1cc(Cl)ccc1N1C(=O)c2cc(-c3ccccc3)nn2CC1(C)C(=O)NCc1ccccc1 (stereo not drawn),7.71%,1.28%,8.88%,7.39%,2.91%
CC1=CC(=O)CC(C)(C)C1CO[C@@H]1O[C@H](CO)[C@@H](O)[C@H](O)[C@H]1O (stereo partly drawn),1.68%,-1.36%,9.45%,-11.7%,4.29%

# Reference: PubChem BioAssay AID1745853 (National Center for Advancing Translational Sciences (NCATS), 2022)
